From ChEMBL document CHEMBL5606460, “ASAP - DENV-2 NS2B-NS3 protease fluorescence single point” (2024)
Screen size: about 2,000 compounds; about 110 (5.5%) showed an effect of 50% or more. This is one part of the list.

Biological target: Genome polyprotein (dengue virus type 2) (UniProt P29990)
[1] = Thailand/16681/1984, Concentration 25.0 uM, Number of replicates 1.0

SMILES: O=Cc1ccc(N2CCC(C(=O)N3CCN(C(c4ccc(F)cc4)c4ccc(F)cc4)CC3)CC2)cc1
- inhibition [1]: 1.35%

SMILES: Cc1cc(CO)c2cccc(C[C@H](NC(=O)c3cccc(Cn4cncn4)c3)C(=O)O)c2n1
- inhibition (Thailand/16681/1984, Concentration 49.95 uM, Number of replicates 2.0, Standard deviation 0.4600859565255321 %): 2.21%
- inhibition (Thailand/16681/1984, Concentration 99.9 uM, Number of replicates 2.0, Standard deviation 0.9708422030300133 %): 6.14%

SMILES: CN1CCN(c2ccc(CNCc3cccc(S(N)(=O)=O)c3)cc2)CC1
- inhibition (Thailand/16681/1984, Concentration 49.5 uM, Number of replicates 2.0, Standard deviation 0.282786134545178 %): -2.84%
- inhibition (Thailand/16681/1984, Concentration 99.01 uM, Number of replicates 2.0, Standard deviation 0.07602768850443749 %): -2.04%
- inhibition (Thailand/16681/1984, Concentration 198.0 uM, Number of replicates 2.0, Standard deviation 0.4014635677569415 %): -1.64%

SMILES: O=C1NCc2ccccc2C12CCNCC2
- inhibition (Thailand/16681/1984, Concentration 49.5 uM, Number of replicates 2.0, Standard deviation 0.5161955896985736 %): 0.377%
- inhibition (Thailand/16681/1984, Concentration 99.01 uM, Number of replicates 2.0, Standard deviation 0.21727012294044853 %): 0.722%
- inhibition (Thailand/16681/1984, Concentration 198.0 uM, Number of replicates 2.0, Standard deviation 1.3604452261475042 %): 0.126%

SMILES: O=C(NCc1ccccc1)c1cc(O)ccc1NS(=O)(=O)c1ccc(Oc2ccccc2Cl)cc1
- inhibition (Thailand/16681/1984, Concentration 49.5 uM, Number of replicates 2.0, Standard deviation 0.5844803568567073 %): 33.5%
- inhibition (Thailand/16681/1984, Concentration 99.01 uM, Number of replicates 2.0, Standard deviation 0.18145668135528656 %): 55.3%
- inhibition (Thailand/16681/1984, Concentration 198.0 uM, Number of replicates 2.0, Standard deviation 0.23302823954279267 %): 60.6%

SMILES: O=Cc1ccc(N2CCC(C(=O)NCc3ccccc3-n3cccn3)CC2)cc1
- inhibition [1]: 13.9%

SMILES: COc1cc(CN2CC(O)C2)ccc1OC[C@@H](O)CN1CCC(O)CC1
- inhibition (Thailand/16681/1984, Concentration 49.5 uM, Number of replicates 2.0, Standard deviation 0.3903057164492887 %): -0.64%
- inhibition (Thailand/16681/1984, Concentration 99.01 uM, Number of replicates 2.0, Standard deviation 0.677644680011159 %): -0.711%
- inhibition (Thailand/16681/1984, Concentration 198.0 uM, Number of replicates 2.0, Standard deviation 1.5326209607264492 %): -0.547%

SMILES: COc1cccc(Cn2cc(C3CCNCC3)c(C)n2)n1
- inhibition (Thailand/16681/1984, Concentration 49.5 uM, Number of replicates 2.0, Standard deviation 0.5897033629115713 %): -3.33%
- inhibition (Thailand/16681/1984, Concentration 99.01 uM, Number of replicates 2.0, Standard deviation 0.7206939136220955 %): -3.64%
- inhibition (Thailand/16681/1984, Concentration 198.0 uM, Number of replicates 2.0, Standard deviation 2.0772079346215944 %): -3.79%

SMILES: NS(=O)(=O)c1cccc(CN2CC[C@H](c3c[nH]c4ccccc34)C2)c1
- inhibition (Thailand/16681/1984, Concentration 49.5 uM, Number of replicates 2.0, Standard deviation 1.1633260593891446 %): -1.78%
- inhibition (Thailand/16681/1984, Concentration 99.01 uM, Number of replicates 2.0, Standard deviation 1.588607527736017 %): 0.04%
- inhibition (Thailand/16681/1984, Concentration 198.0 uM, Number of replicates 2.0, Standard deviation 1.7864683947344713 %): 2.15%

SMILES: O=Cc1ccc(N2CCC(C(=O)N[C@@H](Cc3ccccc3)c3ccccc3)CC2)cc1
- inhibition [1]: 4.84%

SMILES: CC(C)(C)N(C[C@H](O)c1ccc(O)c(CO)c1)C(=O)C1CCN(c2ccc(C=O)cc2)CC1
- inhibition [1]: 12.9%

SMILES: Cc1cc(CO)c2cccc(Nc3nonc3C(N)=O)c2n1
- inhibition (Thailand/16681/1984, Concentration 49.95 uM, Number of replicates 2.0, Standard deviation 1.5271718368293243 %): 11%
- inhibition (Thailand/16681/1984, Concentration 99.9 uM, Number of replicates 2.0, Standard deviation 3.697399383401008 %): 23.8%

SMILES: COc1ccccc1C[C@H](C)N(C)C(=O)C1CCN(c2ccc(C=O)cc2)CC1
- inhibition [1]: 16.3%

SMILES: Cc1cc(CO)c2cccc(Cc3cccc(NC(=O)Cc4c(C)c5c(=O)[nH]n(C)c5[nH]c4=O)c3)c2n1
- inhibition (Thailand/16681/1984, Concentration 49.95 uM, Number of replicates 2.0, Standard deviation 0.9721935995806666 %): 38.4%
- inhibition (Thailand/16681/1984, Concentration 99.9 uM, Number of replicates 2.0, Standard deviation 1.6660426680996274 %): 65.6%

SMILES: Cc1cc(CO)c2cccc(Cc3ccccc3C(=O)N3CCCNCC3)c2n1
- inhibition (Thailand/16681/1984, Concentration 49.95 uM, Number of replicates 2.0, Standard deviation 1.9396415483127036 %): -2.37%
- inhibition (Thailand/16681/1984, Concentration 99.9 uM, Number of replicates 2.0, Standard deviation 2.1516438209514726 %): 5.47%

SMILES: CC(C)(C)N(Cc1cccnc1)C(=O)C1CCN(c2ccc(C=O)cc2)CC1
- inhibition [1]: 15.3%

SMILES: O=C1NCCC[C@@H]1CNS(=O)(=O)c1ccc(Oc2ccccc2Cl)cc1
- inhibition (Thailand/16681/1984, Concentration 49.5 uM, Number of replicates 2.0, Standard deviation 0.9940716071741866 %): -2.68%
- inhibition (Thailand/16681/1984, Concentration 99.01 uM, Number of replicates 2.0, Standard deviation 0.27557480876496404 %): -0.801%
- inhibition (Thailand/16681/1984, Concentration 198.0 uM, Number of replicates 2.0, Standard deviation 0.9840594547230297 %): 1.79%

SMILES: Cc1cc(CO)c2cccc(C[C@H](NC(=O)CCC3CCNCC3)C(=O)O)c2n1
- inhibition (Thailand/16681/1984, Concentration 49.95 uM, Number of replicates 2.0, Standard deviation 0.656686674900359 %): -4.67%
- inhibition (Thailand/16681/1984, Concentration 99.9 uM, Number of replicates 2.0, Standard deviation 0.4526541184339091 %): -4.34%

SMILES: NS(=O)(=O)c1ccc(C2CCN(Cc3c[nH]c4ccccc34)CC2)cc1
- inhibition (Thailand/16681/1984, Concentration 49.5 uM, Number of replicates 2.0, Standard deviation 0.5777028907350644 %): 1.89%
- inhibition (Thailand/16681/1984, Concentration 99.01 uM, Number of replicates 2.0, Standard deviation 0.29606761803532494 %): 3.74%
- inhibition (Thailand/16681/1984, Concentration 198.0 uM, Number of replicates 2.0, Standard deviation 0.9562405116571111 %): 7.14%

SMILES: Cc1[nH]c(=O)c(NC(=O)C2CCN(c3ccc(C=O)cc3)CC2)cc1Br
- inhibition [1]: 27.8%

SMILES: Cn1cccc(CN2CCC(c3c[nH]c4cccnc34)CC2)c1=O
- inhibition (Thailand/16681/1984, Concentration 49.5 uM, Number of replicates 2.0, Standard deviation 0.020617521795104676 %): 0.143%
- inhibition (Thailand/16681/1984, Concentration 99.01 uM, Number of replicates 2.0, Standard deviation 0.8828423097135296 %): 0.656%
- inhibition (Thailand/16681/1984, Concentration 198.0 uM, Number of replicates 2.0, Standard deviation 0.47379063652157694 %): 1.17%
